# According to PubChem BioAssay AID1508642 (National Center for Advancing Translational Sciences (NCATS), 2021):
# Hit rate of the full screen: of about 43,000 compounds, about 200 (0.47%) were called active. Another 12% or so got no clear call; they are omitted. Calls follow the shape of the dose curve; as a rule, active = well fitted cell-killing curve with a large enough effect; inconclusive = small, poorly fitted or top-dose-only effect, or effect the other way; inactive = flat fitted curve, though single readings scatter. The list shows a part of the results.
# Assay: Cell viability qHTS assay in S16 Pmp22-F2sN cells; also: nearly all actives have a fitted effect of over 65% in size
# Settings: S16 Pmp22-F2sN Schwann cells viability, CellTiter-Glo, 24 h; series mostly up to 57.5 µM; activity change, negative = cytotoxicity: at the top concentration
# In short: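 Used to flag compounds lowering reporter output through toxicity, this quantitative HTS measures ATP-based CellTiter-Glo luminescence in S16 Pmp22-F2sN Schwann cells after 24 h compound exposure at 37C.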
# % is scaled to controls: 0 for no effect and ±100 for the full control effect.
row,SMILES,"activity change, negative = cytotoxicity"
1,COc1ccccc1NC(=O)N1CCN(c2nnc(C)c3c(C)n(-c4ccccc4)nc23)CC1,inactive: -15.5%
2,Nc1c(-c2nc(-c3ccccc3Cl)no2)nnn1-c1ccccc1C(F)(F)F,inactive: 7.9%
3,Cc1ccc(-c2nnc(SCC(=O)NCc3ccccc3)o2)cc1,inactive: 16.2%
4,CCN(CC)CCN(C(=O)c1ccco1)c1nc2ccc(F)cc2s1,inactive: -5.03%
5,CCCC(=O)N1c2ccccc2-c2nnc(SC)nc2OC1c1sccc1C (stereo not drawn),inactive: -24.5%
6,CCc1ccc(S(=O)(=O)Nc2cc3c(cc2C)n(C)c(=O)c(=O)n3C)cc1,inactive: 20.2%
7,CCOC(=O)c1c(NC(=O)COc2ccc(Cl)cc2Cl)sc2c1CCCCC2,inactive: 9.51%
8,CN(C)c1ccc(CNC(=O)Cn2c(-c3cccs3)cc3cc(Cl)ccc32)cc1,inactive: 3.61%
9,CC(Oc1ccccc1)C(=O)Nc1c(C(=O)Nc2cccc(F)c2)oc2ccccc12 (stereo not drawn),inactive: 4.24%
10,COc1cc2c(cc1NC(=O)c1ccccc1C)n(C)c(=O)n2C,inactive: 12.6%
11,CCc1ccc(CNC(=O)c2ccc(-c3nc(CSc4ccc(C)cc4)c(C)o3)cc2)cc1,inactive: 5.38%
12,O=C(CSc1oc(-c2ccc(F)cc2)nc1S(=O)(=O)c1ccccc1)NC1CCCCC1,inactive: -7.41%
13,CCSc1nnc(NC(=O)c2cc(=O)c3cc(C)ccc3o2)s1,inactive: 0.759%
14,COc1cc(C(=O)NCCc2sc(-c3cccc(F)c3)nc2C)cc(OC)c1OC,inactive: 5.58%
15,O=C(Nc1ccccc1Br)c1cc(CN2CCCC2)on1,inactive: -1.72%
16,O=C(CCN1C(=O)c2ccccc2Sc2ncccc21)Nc1ccc(F)cc1,inactive: 7.22%
17,CC(CCc1ccccc1)NC(=O)Cn1ncc2c3ccccc3n(Cc3ccccc3)c2c1=O (stereo not drawn),inactive: 15.9%
18,COc1ccc(-c2nnc(SCC(=O)Nc3c(C)cccc3C)nc2-c2ccc(OC)cc2)cc1,inactive: -15.1%
19,CC(C)CNc1ncnc2onc(-c3ccc(Cl)cc3)c12,inactive: -9.56%
20,CCOC(=O)c1ccc(NC(=O)c2oc3c(c2C)-c2nn(Cc4ccccc4Cl)cc2CC3)cc1,inactive: -3.89%
21,COc1cccc(CNC(=O)CCn2cnc3ccccc3c2=O)c1,inactive: -0.885%
22,CCCCc1ccc(NC(=O)CSc2nc(=O)[nH]c3c2CCCC3)cc1,inactive: 14.1%
23,Cc1cc2oc(C(=O)N(Cc3ccc(N(C)C)cc3)Cc3ccco3)c(C)c2cc1Cl,inactive: 1.05%
24,Cc1ccccc1Nc1nc(N)c(C(=O)c2ccccc2Cl)s1,inactive: 6.06%
25,CCOc1ccc(NC(=O)c2cnc3sc(N4CCOCC4)nn3c2=O)cc1,inactive: 12.9%
26,COc1cccc(N2CC(NC(=O)COc3ccccc3F)CC2=O)c1 (stereo not drawn),inactive: -5.25%
27,COC(=O)CCN(c1ccccc1)C(CNS(=O)(=O)c1ccccc1)c1ccccc1 (stereo not drawn),inactive: 18.8%
28,CCOc1ccc(CCNC(=O)Cn2c(-c3cccs3)cc3ccccc32)cc1OCC,inactive: -8.46%
